# The campaign covered roughly 310,000 compounds. About 2,200 (0.71%) showed an effect of 50% or more. Effects have a minus sign here. Some of the results follow.
# Molecular target: human ether-à-go-go-related gene (hERG) potassium channel (human, UniProt Q12809)
# Test: primary screen, population patch clamp on CHO cells stably expressing hERG
# human ether-à-go-go-related gene (hERG) potassium channel, sequence (Q12809 whole entry, looked up): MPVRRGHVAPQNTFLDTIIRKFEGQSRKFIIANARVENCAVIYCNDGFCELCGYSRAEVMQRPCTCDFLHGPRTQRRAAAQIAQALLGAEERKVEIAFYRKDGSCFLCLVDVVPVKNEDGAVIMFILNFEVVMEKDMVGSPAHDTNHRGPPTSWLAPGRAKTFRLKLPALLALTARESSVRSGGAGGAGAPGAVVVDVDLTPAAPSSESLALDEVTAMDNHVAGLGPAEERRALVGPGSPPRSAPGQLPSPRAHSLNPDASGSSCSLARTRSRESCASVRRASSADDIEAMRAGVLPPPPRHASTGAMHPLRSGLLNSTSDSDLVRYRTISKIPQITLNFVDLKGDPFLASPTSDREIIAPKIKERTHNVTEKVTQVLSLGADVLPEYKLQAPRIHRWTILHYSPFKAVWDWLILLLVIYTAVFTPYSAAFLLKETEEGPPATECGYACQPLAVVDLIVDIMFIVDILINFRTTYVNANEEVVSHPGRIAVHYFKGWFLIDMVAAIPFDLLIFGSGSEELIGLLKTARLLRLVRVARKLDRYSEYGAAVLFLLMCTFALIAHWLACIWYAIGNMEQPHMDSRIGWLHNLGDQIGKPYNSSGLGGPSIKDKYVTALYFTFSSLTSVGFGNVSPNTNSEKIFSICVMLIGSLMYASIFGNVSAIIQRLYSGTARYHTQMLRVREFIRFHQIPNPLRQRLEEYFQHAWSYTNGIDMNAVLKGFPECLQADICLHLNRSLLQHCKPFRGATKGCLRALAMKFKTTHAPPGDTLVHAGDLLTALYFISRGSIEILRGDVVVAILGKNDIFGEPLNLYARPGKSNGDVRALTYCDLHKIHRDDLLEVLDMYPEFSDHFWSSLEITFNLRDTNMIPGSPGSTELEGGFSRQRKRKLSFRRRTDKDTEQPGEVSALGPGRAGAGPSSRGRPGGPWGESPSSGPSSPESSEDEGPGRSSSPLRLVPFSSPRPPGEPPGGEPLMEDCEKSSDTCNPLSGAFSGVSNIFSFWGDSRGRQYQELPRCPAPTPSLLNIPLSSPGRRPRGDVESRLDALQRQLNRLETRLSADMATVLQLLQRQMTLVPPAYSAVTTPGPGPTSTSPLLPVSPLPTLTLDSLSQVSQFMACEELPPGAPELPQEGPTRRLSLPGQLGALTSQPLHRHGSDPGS
row,Compound,"hERG current change (%, negative = inhibition) at 1uM"
1,CC(C)Cn1c(CN(C)Cc2ccccc2)nc2c1c(=O)n(C)c(=O)n2C,-6.95%
2,CC(C)NC(=O)c1cc2cc(Br)ccc2oc1=O,11.9%
3,CCCCn1c(=O)[nH]c(=O)c2c1nc(-c1ccc(C)c([N+](=O)[O-])c1)n2CC,-15.2%
4,Cc1ccc(N(CC(=O)NC2CCCCC2)C(=O)CNC(=O)c2ccco2)cc1F,-5.3%
5,CC(OC(=O)c1ccc2noc(-c3ccccc3)c2c1)C(N)=O (stereo not shown),14.4%
6,COc1ccc(/C=C/C(=O)c2ccc(NC(=O)c3cccs3)cc2)cc1OC,-2.27%
7,Cc1nc2c(nnn2Cc2ccccc2Cl)c(=O)[nH]1,13.6%
8,C=CCOc1ccc(C2C(C(=O)c3ccco3)=C(O)C(=O)N2CCCN(CC)CC)cc1 (stereo not shown),13.7%
9,COCCCn1c(-c2cccs2)nc2nc3ccccc3nc21,10.8%
10,CCOC(=O)C1=NN(C(C)=O)C2C(=O)N(CC)C(=O)C12 (stereo not shown),14.1%
11,CCCCCn1c(CN2CCN(c3cc(Cl)ccc3C)CC2)nc2c1c(=O)[nH]c(=O)n2C,11.4%
12,Cc1ccc([N+](=O)[O-])c(OCCN2C(=O)NC(C)(C)C2=O)c1,19.3%
13,CCn1ncc(/C=C/C(=O)NCc2cn(C)nc2C)c1C,-4.5%
14,CCN(CC)S(=O)(=O)c1cc(NC(=O)CSc2nnc(-c3cccs3)o2)ccc1C,5.82%
15,O=C(NCCN1CCOCC1)C(=O)NCc1ccc2c(c1)OCO2,9%
16,O=c1cc(-c2ccc(Cl)cc2)[nH]c2ccccc12,7.64%
17,O=C1CCN(Cc2ccc(Br)cc2)CCN1[C@H](CO)Cc1ccccc1,1.06%
18,COc1ccc(-c2ccc(CCC(=O)O)n2CC2CCCO2)cc1 (stereo not shown),17.3%
19,O=C(OCCNc1ccc(C(F)(F)F)cc1[N+](=O)[O-])c1cc2ccccc2oc1=O,9.74%
20,COc1ccc(N2CC(C(=O)Nc3nnc(SCCC4OCCO4)s3)CC2=O)cc1 (stereo not shown),7.25%
21,Cc1ccc(NC(=S)NCCc2ccc(S(N)(=O)=O)cc2)c(C)c1,1.77%
22,CC(NC(=O)c1cccnc1)C(=O)N1CCCCC1 (stereo not shown),9.85%

row,Compound,"hERG current change (%, negative = inhibition) at 1uM"
1,O=C(CN1CCN(S(=O)(=O)c2ccc(Br)cc2)CC1)N/N=C/c1cccs1,-9.92%
2,Cc1ccc(S(=O)(=O)N2CC=C(C(=O)NCCC(C)C)CC2)cc1,4.86%
3,Cc1cccc(N(CC(=O)NCc2ccccc2)C(=O)Cn2nnc(-c3ccc(C)o3)n2)c1,-3.56%
4,CCOc1ccc(NC(C)=O)cc1[N+](=O)[O-],5.43%
5,COc1ccccc1NC(=O)Cc1cccc2ccccc12,15.1%
6,[N-]=[N+]=NC[C@H](Cc1ccccc1)N1CC[C@@H](O)CCC1=O,0.688%
7,CCCCS(=O)(=O)N1CCC(C(=O)Oc2ccccc2OC)CC1,14.3%
8,CSCc1nnc(NC(=O)c2ccc(S(=O)(=O)N3CCCCC3C)cc2)o1 (stereo not shown),7.3%
9,COC(=O)c1c(C(=O)OC)c2ccccn2c1C(=O)c1ccccc1,18.7%
10,COc1ccccc1N1CCN(/N=C/c2cc([N+](=O)[O-])ccc2Cl)CC1,18.1%
11,CCCNC(=O)c1ccc(COc2ccc(C)cc2)o1,9.22%
12,O=C(CNS(=O)(=O)c1ccccc1)Nc1cccc([N+](=O)[O-])c1,-7.15%
13,CCC[C@@H](O)c1cc2cc(OC)c(OC)cc2c(=O)o1,7.12%
14,CC(C)(C)n1nnnc1C(c1ccc(C#N)cc1)N1CCCC2(CCCCC2)C1 (stereo not shown),8.24%
15,Cl.O=C(COc1ccc(Cl)cc1)N(c1ccc(Cl)cc1)C1CN2CCC1CC2 (stereo not shown),-22.4%
16,CCCCCCc1cc2cc(C(=O)Nc3ccccc3OC)c(=O)oc2cc1O,15.3%
17,CCOc1ccc(S(=O)(=O)Nc2ccc3c(c2)OCO3)c2cccnc12,5.43%
18,O=C(N/N=C/c1c(Cl)cccc1Cl)c1ccc(-n2cnnn2)cc1,9.97%
19,CCc1cc(C(=O)Nc2ccc(OC)nc2)sc1C,-9.92%
20,CC(NC(=O)c1cc(S(=O)(=O)N(C)C)ccc1Cl)c1ccc(-n2ccnc2)cc1 (stereo not shown),-55.3%
21,COc1ccc(Cc2nnc(-c3ccccc3)o2)cc1,-2.61%
22,Cc1nn(CC(=O)c2ccccc2Cl)c(C)c1[N+](=O)[O-],8.46%

row,Compound,"hERG current change (%, negative = inhibition) at 1uM"
1,Cc1ccc(Cn2c(N)c(S(=O)(=O)c3cccs3)c3nc4ccccc4nc32)cc1,5.35%
2,COC(=O)C1C2C=CC3(CN(c4cccc(C)c4)C(=O)C13)O2 (stereo not shown),12.7%
3,COc1ccccc1NC(=O)CCC(=O)O,16.8%
4,O=C(Nc1cc(S(=O)(=O)N2CCOCC2)ccc1N1CCOCC1)C1CCCO1 (stereo not shown),4.92%
5,Cc1cc2c(cc1S(=O)(=O)NCc1ccccc1)OCC(=O)N2,-7.7%
6,Cc1nn(CCCC(=O)NCc2ccccc2Cl)c(=O)c2nccn12,12%
7,CCCNC(=S)Nc1c(C)n(C)n(-c2ccccc2)c1=O,7.69%
8,CCCc1cc(=O)[nH]c(SCC(=O)CSc2nc(CCC)cc(=O)[nH]2)n1,10.1%
9,Cc1ccc(-c2nnc(Sc3nc4ccccc4o3)c3ccccc23)cc1,10.8%
10,O=C1CCC/C(=N/NC(=O)c2cc(NS(=O)(=O)c3cccs3)cc(NS(=O)(=O)c3cccs3)c2)C1,12.4%
11,CCOC(=O)C1(CCc2ccccc2)CCN(Cc2nccn2CC)CC1,-47.2%
12,CC(NC(=O)C(=O)N1CCCCC1)C(c1cccs1)N1CCN(Cc2ccccc2)CC1 (stereo not shown),8.49%
13,CCCc1ccc(C(=O)[C@@H]2[C@@H](C(C)=O)N3c4ccc(F)cc4C=C[C@@H]3[C@@]23C(=O)Nc2ccccc23)cc1,9.46%
14,CCCCNC(=O)c1ccccc1Cl,22.8%
15,N/C(Cn1cncn1)=N\OC(=O)c1ccc(Cl)cc1Cl,5.16%
16,CC(=O)NC1C(OC(=O)/C=C/c2ccccc2)OC(COC(C)=O)C(OC(C)=O)C1OC(C)=O (stereo not shown),-5.25%
17,COc1ccc(OCCC(=O)OCC(=O)NCc2ccccc2OC)cc1,-4.71%
18,COC(=O)CC1C(=O)NCCN1C(=O)CSc1nnnn1-c1ccc(Cl)cc1 (stereo not shown),13.7%
19,Cc1ccc(C)c(NC(=S)NCc2ccc3c(c2)OCO3)c1,10.8%
20,CCOC(=O)CNC(=O)COc1coc(CN2CCN(Cc3ccccc3)CC2)cc1=O,7.22%
21,COc1ccc(CCN(C)Cc2nc(Cc3ccc(OC)c(OC)c3)no2)cc1OC,13.3%
22,CCn1cc(CN2CCC(C(=O)Nc3cccc(-c4cccc(OC)c4)c3)CC2)c(C)n1,-3.78%

row,Compound,"hERG current change (%, negative = inhibition) at 1uM"
1,CC(C)(C)[C@@H]1C=C(C(N)=O)O[C@H](OCc2ccc(CO)cc2)C1,6.33%
2,Cc1ccc(CN2CCNC2=O)cc1,-6.74%
3,O=C(OCC(=O)N1CCCc2ccccc21)c1cc(Br)ccc1O,8.99%
4,C=CCC(Nc1ccco1)c1ccccc1.Cl (stereo not shown),-7.38%
5,CCOc1ccc(-n2c(Cc3cc(=O)[nH]c(=O)[nH]3)nnc2SCc2cccnc2)cc1,9.65%
6,Cc1ccc(C)c(Nc2cc(C)nc(-c3ccccc3O)n2)c1,10.3%
7,CC1CCN(CCCNc2cc(NCCO)c([N+](=O)[O-])c3nonc23)CC1,15.9%
8,CCN(Cc1ccccc1)C(=O)c1ccc2c(=O)n3c(nc2c1)CCC3,9.35%
9,CN1CCC(N(C)C(=S)NCCc2ccccc2)CC1,-7.15%
10,Clc1ccc(-c2nc3ccc(Cl)cn3c2CN2CCOCC2)cc1,3.1%
11,Cc1cc([N+](=O)[O-])nn1CC(=O)N/N=C/c1ccc(O)cc1O,2.26%
12,Cc1ccc(CNC(=O)c2nnc(Cc3ccc(Cl)cc3)o2)cc1,9.43%
13,O=C(/C=C/Nc1ccc(S(=O)(=O)Nc2cnc3ccccc3n2)cc1)c1cccnc1,3.32%
14,Cc1cc(OCc2nc(-c3ccc(NC(=O)c4cccnc4)cc3)no2)ccc1Cl,12%
15,COc1ccc(CNC(=O)C2CSC(c3ccc(OC)cc3)N2C(C)=O)cc1 (stereo not shown),5.4%
16,NNC(=O)C1c2ccccc2Oc2ccccc21,15%
17,NC(=O)CC(NC(=O)c1ccccc1)c1ccc(NCc2ccccn2)c([N+](=O)[O-])c1 (stereo not shown),7.17%
18,O=C(C1CC1)N1CCN=C1SCc1ccccc1Cl,-1.4%
19,O=C(O)CSCC(=O)Nc1cccc2ccccc12,12.3%
20,Cc1cc(=O)oc2cc(OCC(=O)N(C)C3CCS(=O)(=O)C3)c(Cl)cc12 (stereo not shown),23.2%
21,Cc1cccc(N2CC(C(=O)Nc3ccc(S(=O)(=O)N4CCCCC4)cc3)CC2=O)c1C (stereo not shown),13.7%
22,COc1ccc(CC(=O)N2CCN(C)CC2)cc1OC.Cl,21.8%

# — PMC4336329 (PLoS ONE, 2015)
